# Measurements: PubChem BioAssay AID902 (National Center for Advancing Translational Sciences (NCATS), 2007)
# The whole screen tested about 130,000 compounds, of which about 1,900 (1.5%) were called active. Inconclusive results, whose numbers are uncertain, are shown with a selection of clear calls. Calls follow the shape of the dose curve; as a rule, active = well fitted cell-killing curve with a large enough effect; inconclusive = small, poorly fitted or top-dose-only effect; inactive = no such curve, though single readings can be large or run the other way. A potency beside an inconclusive call is a rough fit, not a confirmed value.
# Assay: qHTS Screen for Compounds that Selectively Target Cancer Cells with p53 Mutations: Cytotoxicity of p53ts Cells at the Nonpermissive Temperature; also: nearly all actives have a fitted effect of over 55% in size
# Details: H1299-p53A138V viability at 39C, ATP luminescence, 24 h; activity change, negative = cell killing: at 46.1 µM (top of the series)
# % is scaled to controls: 0 for no effect and ±100 for the full control effect; potency is read from the fitted curve at half-maximal effect; tags tell the direction and shape of the fitted curve.
Structure (SMILES),"activity change, negative = cell killing",Potency
C=CCc1ccc(OCC(O)CN2CCCCC2)c(OC)c1 (centres undefined),inactive: 3.93%,
Cc1ccc(CN2CCCn3nc(C(=O)NCCN(C)C)cc3C2=O)cc1,,"inconclusive: 35.5 µM [cytotoxic, single point]"
COc1ccc(Oc2ncc3ncc(=O)n(Cc4ccc(F)cc4)c3n2)cc1,inactive: 1.15%,
CC(=O)Oc1c(C)cc(O)c2ccccc12,,"inconclusive: 31.6 µM [cytotoxic, single point]"
NC(=O)N/N=C/c1ccc([N+](=O)[O-])o1,,"inconclusive: 25.1 µM [cytotoxic, single point]"
CCNc1ncc2nc(CCc3ccccc3)c(=O)n(C)c2n1,,"inconclusive: 12.6 µM [cytotoxic, single point]"
O=C(Nc1ccc2c(c1)OCO2)c1noc2c1CCCCC2,,active: 15.8 µM
CCN(CC)S(=O)(=O)c1cc(C(=O)NC2CCCCC2)ccc1C,,"inconclusive: 12.6 µM [cytotoxic, partial curve]"
Cc1ccccc1CNS(=O)(=O)c1ccc2c(c1)OCCO2,inactive: 0.279%,
O=c1[nH]c2ccc(S(=O)(=O)N3CCN(C4CCCCC4)CC3)cc2[nH]c1=O,inactive: -7.2%,
CCOC(=O)NC(=O)CSc1nc(C)cc(C)c1C#N,,active: 6.31 µM
CCCS(=O)(=O)c1ncc(Cl)c(C(=O)Nc2scc(-c3ccccc3)c2C(=O)OCC)n1,,active: 7.94 µM
CCC1CCCCN1CC(=O)N1CCCc2c1c(=O)oc1ccc(OCc3ccccc3)cc21 (centres undefined),,"inconclusive: 7.94 µM [cytotoxic, partial curve]"
O=C(CN1CCN(CC(=O)Nc2ccccc2Cl)CC1)Nc1ccc2c(c1)OCCO2,inactive: -6.75%,
CN(Cc1ccccc1)S(=O)(=O)c1ccc(F)c(C(=O)Nc2cccc(Cl)c2Cl)c1,,"inconclusive: 7.94 µM [cytotoxic, partial curve]"
Cc1nc2ccc(S(=O)(=O)N(C)CC(=O)Nc3ccc(Br)c(C)c3)cc2s1,,"inconclusive: 20 µM [cytotoxic, partial curve]"
CCOc1ccc(C2CC(=O)c3c([nH]c(C(=O)OCc4ccccc4)c3C)C2)cc1 (centres undefined),,"inconclusive: 15.8 µM [cytotoxic, single point]"
COc1cccc(C(=O)N(Cc2cc3cc(C)ccc3[nH]c2=O)CC2CCCO2)c1 (centres undefined),inactive: 11.5%,
COc1ccc(S(=O)(=O)N(CCc2ccccc2)CC(=O)Nc2cccc(OC)c2)cc1,inactive: -24%,
CCOc1ccc2nc(N3CCC(C(=O)N4CCN(C(=O)c5ccco5)CC4)CC3)sc2c1,,"inconclusive: 3.98 µM [cytotoxic, partial curve]"
COc1ccc(N=[N+]([O-])c2ccc(OC)cc2)cc1,,active: 15.8 µM
Cc1ccc(N(C)C(=O)C2CCN(S(=O)(=O)c3ccc4c(c3)CCCN4C(=O)C3CCC3)CC2)cc1,,"inconclusive: 0.0316 µM [cytotoxic, full curve, poor fit]"
Cc1ccc(NC(=O)CN(C)S(=O)(=O)c2ccc3nc(C)sc3c2)c(C)c1,inactive: -14.5%,

Structure (SMILES),"activity change, negative = cell killing",Potency
CC(C)c1c(O)ccc2c1CCC1C(C)(C)CCC[C@@]21C (some centres undefined),,"inconclusive: 20 µM [cytotoxic, single point]"
COc1cc(NC(=O)CSc2nc3nc(C)c(Cc4ccc(C)cc4)c(C)n3n2)cc(OC)c1,,"inconclusive: 10 µM [cytotoxic, single point]"
C[C@H](c1ccccc1)N1C(=O)[C@H]2[C@@H]3[C@H](O)[C@H](O)CC(=O)[C@H]3CC[C@H]2C1=O,inactive: 14.6% [at 9.22 µM],
CC(C)COC(=O)c1cccc2c1-c1ccccc1/C2=N\O,,"inconclusive: 22.4 µM [cytotoxic, single point]"
N#Cc1cccc(-c2nc(N3CCNCC3)c3ccccc3n2)c1,,"inconclusive: 20 µM [cytotoxic, single point]"
Clc1cccc(CNc2cc(-c3ccccc3)nc3nncn23)c1,,"inconclusive: 31.6 µM [cytotoxic, single point]"
O=C(NC(=S)N1CCN(c2ccc(Cl)cc2[N+](=O)[O-])CC1)c1cccs1,,"inconclusive: 35.5 µM [cytotoxic, single point]"
CCOc1ccc(-n2nc(CO)c(C(=O)NCCCc3ccccc3)n2)cc1,,"inconclusive: 7.94 µM [cytotoxic, partial curve]"
COCCn1c(C)cc(C(=O)CSc2nnc3ccccn23)c1C,,"inconclusive: 12.6 µM [cytotoxic, partial curve]"
O=C(Nc1ccc(Oc2ccccc2)cc1)c1ccco1,,"inconclusive: 12.6 µM [cytotoxic, partial curve]"
Cc1cccc(N(CC(=O)NCc2ccccc2)C(=O)Cn2nnc(-c3ccc(C)o3)n2)c1,,"inconclusive: 31.6 µM [cytotoxic, single point]"
Cc1ccc2nc(-c3sc4nc(C)ccc4c3N)[nH]c2c1,,active: 10 µM
Oc1ccc(NCc2ccccc2OCc2ccccc2F)cc1,,"inconclusive: 20 µM [cytotoxic, single point]"
CC1Cc2ccccc2N1C(=O)COC(=O)C1(c2ccccc2F)CCCC1 (centres undefined),,"inconclusive: 35.5 µM [cytotoxic, single point]"
O=C(CCSc1ccccc1)Nc1ncccn1,inactive: 13.5%,
COc1cccc(CNC(=O)c2cc3oc4ccccc4c3n2C)c1OC,,"inconclusive: 1.26 µM [cytotoxic, full curve]"
NC(=O)c1ncn([C@@H]2O[C@@H](CO)[C@@H](O)[C@H]2O)c1O,inactive: -7.97%,
CC1CCCCN1S(=O)(=O)c1ccc(C(=O)Nc2nnc(-c3cccs3)o2)cc1 (centres undefined),,"inconclusive: 12.6 µM [cytotoxic, partial curve]"
CN(C)c1ccc(CNC(=O)c2ccccc2NC(=O)c2nsc3ccccc23)cc1,,"inconclusive: 12.6 µM [cytotoxic, partial curve]"
Nc1nc(-c2nc3ccccc3[nH]2)cs1,,active: 12.6 µM
CC(=O)c1ccc(Nc2cc(C)nc3nc(Cc4ccc(Cl)cc4)nn23)cc1,,"inconclusive: 12.6 µM [cytotoxic, partial curve]"
CCCCN(CC)S(=O)(=O)c1ccc(C(=O)Nc2nnc(COC)o2)cc1,,"inconclusive: 12.6 µM [cytotoxic, partial curve]"
COC(=O)c1cc(N2C(=O)C3C(C2=O)C2(C)C=CC3(C)O2)ccc1Cl (centres undefined),,"inconclusive: 20 µM [cytotoxic, single point]"

Structure (SMILES),"activity change, negative = cell killing",Potency
O=C1c2[nH]nc(-c3ccccc3)c2C(c2ccccc2)N1c1cccc(C(F)(F)F)c1 (centres undefined),,"inconclusive: 20 µM [cytotoxic, single point]"
COc1ccc2nc(NC(=O)c3ccoc3C)sc2c1,,"inconclusive: 7.94 µM [cytotoxic, partial curve]"
CCOC(=O)N1CCN(C(=O)c2ccc3c(c2)N(Cc2cc(C)ccc2C)C(=O)c2ccccc2S3=O)CC1 (centres undefined),inactive: -28.3%,
O=C(O)c1cc(-c2ccc(-c3ccccc3)cc2)nc2cc3ccccc3cc12,,"inconclusive: 3.16 µM [cytotoxic, partial curve]"
CCCCOc1nnc(-c2ccc(OCC)cc2)c2ccccc12,,"inconclusive: 20 µM [cytotoxic, single point]"
COc1ccc(NC(=O)c2cc3ccccn3n2)cc1,,active: 7.94 µM
COc1cccc(-n2c(=O)c3sc4ccccc4c3n(CC(=O)Nc3ccccc3OC)c2=O)c1,,active: 10 µM
O=S(=O)(c1ccccc1)c1nnn2c1nc(Nc1ccccc1)c1cc(Cl)ccc12,,"inconclusive: 2 µM [cytotoxic, full curve, poor fit]"
CCOC(=O)C1CCN(S(=O)(=O)C(F)(F)c2nc3ccccc3s2)CC1,,"inconclusive: 10 µM [cytotoxic, partial curve]"
COc1ccccc1-c1cc(C(F)(F)F)nc(S(=O)(=O)CCCC(=O)Nc2cc(C)ccc2O)n1,,"inconclusive: 25.1 µM [cytotoxic, single point]"
Cc1cccc(NC(=O)c2ccc3ccccc3n2)n1,,"inconclusive: 12.6 µM [cytotoxic, partial curve]"
Cc1ccccc1OCc1nc(-c2ccc(NC(=O)c3ccco3)cc2)no1,,"inconclusive: 15.8 µM [cytotoxic, single point]"
O=C(Nc1onc2c1CCCC2)c1ccc(Cl)cc1,,"inconclusive: 31.6 µM [cytotoxic, single point]"
Nc1c(C(=O)NCc2ccc3c(c2)OCO3)c2nc3ccccc3nc2n1CCCN1CCOCC1,,"inconclusive: 20 µM [cytotoxic, single point]"
Cc1ccc(C2CC(C(F)F)n3ncc(C(=O)Nc4cnn(Cc5ccccc5C)c4)c3N2)cc1 (centres undefined),,"inconclusive: 10 µM [cytotoxic, partial curve]"
Cc1cccc(N2CCN(C(=O)c3ccc(CS(=O)c4cccc(Cl)c4)o3)CC2)c1C (centres undefined),,"inconclusive: 0.398 µM [cytotoxic, partial curve]"
COCCn1c(C)cc(C(=O)CSc2nc(C)cc(C)c2C#N)c1C,inactive: -1.51%,
COc1ccc(CN(C(=O)Nc2cccc(Cl)c2)c2ccccn2)cc1OC,inactive: -10.7%,
Cc1ccc(O)c(NC(=O)c2cc(-c3ccc4c(c3)OCO4)on2)c1,,"inconclusive: 2 µM [cytotoxic, full curve, poor fit]"
CC(C)(C)c1ccc(-c2nnc(SCC(=O)O)n2N)cc1,,"inconclusive: 15.8 µM [cytotoxic, single point]"
Cc1ccc(NC(=O)C(=O)NCC(c2cccnc2)N2CCOCC2)cc1Cl (centres undefined),,active: 20 µM
COc1cccc(-c2ccc3c(N)c(C(=O)c4ccc(Br)cc4)sc3n2)c1,,active: 12.6 µM
COc1cccc(OCc2nc3ccccc3n2Cc2ccccc2C)c1,,"inconclusive: 31.6 µM [cytotoxic, single point]"
